{"source": "PubChem BioAssay AID1345083", "about": "(National Center for Advancing Translational Sciences (NCATS), 2018)", "note": "Out of some 94,000 compounds screened, about 6,200 (6.6%) were called active. Inconclusive results, whose numbers are uncertain, are shown with a selection of clear calls. The call rests on the fitted dose curve; in most records, active means well fitted inhibition curve with a large enough effect; inconclusive means small, poorly fitted or top-dose-only effect; inactive means flat fitted curve, though single readings scatter. Potencies beside an inconclusive call are fits to weak or partial responses and may not hold up. On the % scale 0 is the no-effect control and ±100 the full control effect; potency means the concentration at half of the fitted maximal effect; tags describe the fitted curve by direction and shape.", "data": [{"assay": "Cytotoxic Profiling in HEK 293 Cell Line of Diverse Libraries Using Quantitative High-Throughput Screening; further: nearly all actives have a fitted effect of over 60% in size", "conditions": "HEK 293 viability, ATP luminescence (CellTiter-Glo), 48-72 h; activity change, negative = cytotoxicity: at 115 µM (top of the series) unless noted; series mostly up to 115 µM", "description": "Cell-based phenotypic screening is a commonly used approach to discover biological pathways, novel drug targets, chemical probes and high-quality hit-to-lead molecules. Many hits identified from high-throughput screening campaign are ruled out through a series of follow-up potency, selectivity/specificity, and cytotoxicity assays. Prioritization of molecules with little or no cytotoxicity for a more in-depth downstream evaluation influence the future direction of projects, so cytotoxicity profiling of the screening libraries at early stage is essential for increasing the likelihood of candidate success. In this study, we analyzed results from a cell-based cytotoxicity screening campaign, comprising nearly 10,000 compounds in NCATS annotated libraries, and over 100,000 compounds in a diversity library, evaluated in four normal cell lines (HEK 293, NIH 3T3, CRL-7250 and HaCat) and a cancer cell line (KB 3-1, a HeLa subline) with overall screening outcomes, hit rates, pan-activity and selectivity. For the annotated library, we also examined the primary targets and mechanistic pathways regularly associated with cell death. To our knowledge, this is the first study to use high-throughput screening to profile large libraries for cytotoxicity assessment in both normal and cancer cell lines. In summary, the results generated here constitutes a valuable resource for the scientific community and provides insight on identifying cytotoxic compounds with particular mechanisms of action, and prioritizing compounds with suitable cytotoxicity profile for further evaluation.\nHEK 293 cells were seeded into white 1536-well plates using a Multidrop Combi peristaltic dispenser (ThermoFisher, Waltham, MA) at a density of 250 cells/well in 5 uL of medium respectively. A pintool (Kalypsys) was used to transfer 23 nL of compound solution to the 1536-well assay plates. After 48 or 72 hr incubation at 37 degree Celsius, 5% CO2 and 95% humidity, 2.5 uL of CellTiter-Glo (Promega) was dispensed into each well using a dispenser (Aspect Automation, St. Paul, MN) with solenoid valves (Lee Valves, Westbrook CT). Plates were left at room temperature for 10 min before imaging the ATP-coupled luminescence using a ViewLux microplate imager (PerkinElmer, Waltham, MA).", "values": [{"smiles": "CC(C)c1nccn1CCCNC(=O)c1ccc(N2CCCCCC2)nc1", "Potency": "active: 79.4 µM"}, {"smiles": "Cc1ccc(-c2cccc(C(=O)N3CC[C@](C)(O)[C@H](C)C3)c2)o1", "Potency": "inconclusive: 89.1 µM [inhibitor, single point]"}, {"smiles": "CCN1C(=O)CCC2(C(=O)NCCc3c[nH]c4ccc(OC)cc34)CCCC=C12", "note": "(configuration not stated)", "activity change, negative = cytotoxicity": "inactive: -2.22%"}, {"smiles": "O=C(NCCC1CCN(C(=O)Nc2cc(F)ccc2F)CC1)c1ccccc1F", "Potency": "inconclusive: 79.4 µM [inhibitor, partial curve, poor fit]"}, {"smiles": "COc1ccccc1CN1CCC(n2nccc2NC(=O)CCc2ccccc2)CC1", "Potency": "inconclusive: 79.4 µM [inhibitor, single point]"}, {"smiles": "COc1ccc2c(c1)CN(Cc1ccccc1)C(=O)CCN2CC(O)COc1ccccc1", "note": "(configuration not stated)", "Potency": "inconclusive: 89.1 µM [inhibitor, partial curve]"}, {"smiles": "Cc1cccc(CN2CCCC(Cc3ncc(C)n3C(C)C)C2)c1", "note": "(configuration not stated)", "Potency": "inconclusive: 50.1 µM [inhibitor, partial curve, poor fit]"}, {"smiles": "CC(C)NC(=O)N(C1CC1)C1CCOC2(CCN(C(=O)c3cc4ccccc4[nH]3)CC2)C1", "note": "(configuration not stated)", "Potency": "inconclusive: 44.7 µM [inhibitor, partial curve, poor fit]"}, {"smiles": "CCN1CC(C(=O)NCCc2nc(C(C)C)no2)CCC1=O", "note": "(configuration not stated)", "activity change, negative = cytotoxicity": "inactive: -0.424%"}, {"smiles": "Cc1ccc(-c2ncc3c(n2)OCCN(Cc2ccc(F)cc2F)C3=O)cc1", "activity change, negative = cytotoxicity": "inactive: -21.7% [at 172 µM]"}, {"smiles": "O=C(c1ccc2c(c1)OCO2)N1CCc2nc(C3CC3)nc(-c3ccc(Cl)cc3)c2CC1", "Potency": "active: 28.2 µM"}, {"smiles": "CC1Oc2ccc(NC(=O)c3ccc4c(c3)OCO4)cc2CN(Cc2ccccc2)C1=O", "note": "(configuration not stated)", "Potency": "active: 20 µM"}, {"smiles": "C[S+](=O)([O-])c1cccc(NC(=O)c2nnn3c2CN(Cc2cccc(Cl)c2)C(=O)CC3)c1", "Potency": "inconclusive: 44.7 µM [inhibitor, partial curve]"}, {"smiles": "CC1=NS(=O)(=O)N(Cc2ccccc2)C=C1C(=O)OCc1nc(-c2ccccc2)no1", "Potency": "inconclusive: 44.7 µM [inhibitor, partial curve, poor fit]"}, {"smiles": "Cc1ccc(C(=O)NCCn2ccn3nc(-c4cc(C)ccc4C)cc3c2=O)cc1", "Potency": "inconclusive: 25.1 µM [inhibitor, full curve, poor fit]"}, {"smiles": "O=C(NC1CCCc2c1[nH]c1ccccc21)c1n[nH]c2c1CCCC2", "note": "(configuration not stated)", "Potency": "inconclusive: 17.8 µM [inhibitor, partial curve, poor fit]"}, {"smiles": "Cc1ccc(C2Cn3nnc(-c4nc(-c5cccc(Cl)c5)no4)c3CO2)c(C)c1", "note": "(configuration not stated)", "activity change, negative = cytotoxicity": "inactive: 13.3%"}, {"smiles": "Cn1ncc2c(C(=O)NC3CCC3)cc(-c3ccc(F)cc3)nc21", "Potency": "inconclusive: 63.1 µM [inhibitor, partial curve]"}, {"smiles": "O=C(c1cccc(Cl)c1)N1CCC2(CC1)NC(=O)N(c1ccccc1Cl)N2", "Potency": "inconclusive: 50.1 µM [inhibitor, partial curve, poor fit]"}, {"smiles": "Cc1noc(C)c1S(=O)(=O)N1CCCC(Cc2nncn2C(C)C)C1", "note": "(configuration not stated)", "outcome": "inactive"}, {"smiles": "COc1ccc(-c2cccc(C(=O)N3CCN(C(=O)Nc4ccc(Cl)cc4)CC3)c2)nn1", "Potency": "inconclusive: 56.2 µM [inhibitor, partial curve, poor fit]"}, {"smiles": "Cc1ccc(-c2ncc(NC(=O)c3ccc(Cl)s3)cn2)cc1", "activity change, negative = cytotoxicity": "inactive: -23.1%"}, {"smiles": "COc1ccc2c(c1)c(CN1C[C@@H](C(N)=O)[C@H](c3nc(C)no3)C1)cn2C(C)C", "Potency": "inconclusive: 50.1 µM [inhibitor, partial curve, poor fit]"}, {"smiles": "Cc1noc(C)c1-c1cc2cc(CN(C)C)oc2c(N2CCN(c3ccccn3)CC2)n1", "Potency": "active: 44.7 µM"}, {"smiles": "CCc1noc(-c2cn(C3CCN(C(=O)Cc4ccc(Cl)cc4)CC3)nn2)n1", "activity change, negative = cytotoxicity": "inactive: -4.02%"}, {"smiles": "CC(C)(C)c1noc(-c2nnn3c2COC(c2ccc(Cl)cc2)C3)n1", "note": "(configuration not stated)", "Potency": "inconclusive: 44.7 µM [inhibitor, partial curve, poor fit]"}, {"smiles": "O=C(c1ccc2c(c1)OCO2)N1CCC(n2cc(-c3nc(-c4ccccc4)no3)nn2)C1", "note": "(configuration not stated)", "Potency": "inconclusive: 31.6 µM [inhibitor, partial curve, poor fit]"}, {"smiles": "CC(C)(C)c1ccc(N2C(=O)[C@@H]3C[C@@H](NC(=O)[C@@H](O)c4ccccc4)CCN3C2=O)cc1", "Potency": "inconclusive: 79.4 µM [inhibitor, partial curve]"}, {"smiles": "Cc1nn(C)c(C)c1CCNC(=O)CCC[C@@H]1[C@H]2CCCN3CCC[C@@H](CN1Cc1ccccc1)[C@@H]23", "activity change, negative = cytotoxicity": "inactive: 9.23%"}, {"smiles": "O=C(CNC(=O)c1cccc(-c2ccsc2)c1)NCC(F)F", "activity change, negative = cytotoxicity": "inactive: -18.3% [at 172 µM]"}, {"smiles": "CN(C)c1cccc(C(=O)N2CCC3(CC2)NC(=O)N(Cc2ccc(F)cc2)C3=O)c1", "Potency": "inconclusive: 3.16 µM [inhibitor, full curve, poor fit]"}, {"smiles": "CCOc1ccccc1NC(=O)NC1CCN(C(=O)N2CC3CC(C2)[C@H]2CCCC(=O)N2C3)CC1", "note": "(some centres not stated)", "Potency": "inconclusive: 70.8 µM [inhibitor, partial curve, poor fit]"}, {"smiles": "COCCn1c2c(c(=O)n1-c1ccccc1)CCN(C(=O)c1ccccc1)C2", "outcome": "inactive [at 172 µM]"}, {"smiles": "O=C1CCN(S(=O)(=O)c2ccccc2)CCCN(C2CCCCC2)CCN1", "activity change, negative = cytotoxicity": "inactive: 0.275%"}, {"smiles": "C#CCNC(=O)[C@@H]1Cc2cn(CC3CC3)c3cccc(c23)[C@H](CC(C)C)N1", "Potency": "active: 70.8 µM"}, {"smiles": "COCCN1C[C@H]2COc3ccc(C)cc3[C@H]2N(C(=O)CC2CCCC2)CCC1=O", "Potency": "inconclusive: 89.1 µM [inhibitor, single point]"}, {"smiles": "Cc1cccc(C)c1NC(=O)CN1C(=O)NC2(CCC(C(C)(C)C)CC2)C1=O", "note": "(configuration not stated)", "Potency": "inconclusive: 79.4 µM [inhibitor, single point]"}, {"smiles": "COc1ccc2[nH]c(C[C@@H]3C[C@@H](C(C)C)[C@H](CN)C=C3C)nc2n1", "Potency": "inconclusive: 89.1 µM [inhibitor, partial curve, poor fit]"}, {"smiles": "CC(C)CC(=O)N1CCCCCC1c1nnc(-c2ccccc2)o1", "note": "(configuration not stated)", "Potency": "inconclusive: 8.91 µM [inhibitor, full curve, poor fit]"}, {"smiles": "COc1cccc(CC(=O)N2CCOCCNC(=O)[C@@H]3CCCC[C@@H]32)c1", "outcome": "inactive"}, {"smiles": "COc1ccc(O[C@H]2COCCN(Cc3nccn3C)C2)cc1", "activity change, negative = cytotoxicity": "inactive: -11.1% [at 172 µM]"}, {"smiles": "COCc1ncc(C)n1CCNC(=O)c1cc(-c2ccc(C)cc2C)n[nH]1", "activity change, negative = cytotoxicity": "inactive: -2.76%"}, {"smiles": "Cn1ncc(N2CCC(NC(=O)C3CCCCC3)CC2)cc1=O", "activity change, negative = cytotoxicity": "inactive: -4%"}, {"smiles": "Cc1cnccc1-c1ccc(NC(=O)NC2CC2)cc1", "activity change, negative = cytotoxicity": "inactive: 1.83%"}, {"smiles": "COc1cccc(CN2CCCCCNC(=O)CC2c2ccccc2)c1OC", "note": "(configuration not stated)", "Potency": "inconclusive: 89.1 µM [inhibitor, single point]"}, {"smiles": "CC1CCC(NC(=O)C2(c3ccc(NS(C)(=O)=O)cc3)CCCCC2)CC1", "note": "(configuration not stated)", "Potency": "inconclusive: 79.4 µM [inhibitor, partial curve]"}, {"smiles": "O=C(Nc1ccc2c(c1)OCCO2)N1CCc2nn(CC3CC3)c(=O)n2CC1", "activity change, negative = cytotoxicity": "inactive: -3.09%"}, {"smiles": "C[C@@H](NC(=O)c1ccccc1)c1onc(-c2ccc(F)cc2)c1C(=O)O", "activity change, negative = cytotoxicity": "inactive: 0.818% [at 172 µM]"}, {"smiles": "CCN1CC(CNc2nccc(-c3c(C)nn(C)c3C)n2)CC1=O", "note": "(configuration not stated)", "activity change, negative = cytotoxicity": "inactive: -12.6%"}, {"smiles": "O=C1c2c(nc(CN3CCCC(CO)C3)n2Cc2ccccc2)NCCN1CCOc1ccccc1", "note": "(configuration not stated)", "Potency": "inconclusive: 50.1 µM [inhibitor, partial curve]"}, {"smiles": "COC(CNc1nc(-c2ccccn2)nc2c1c(C)nn2C)c1cccs1", "note": "(configuration not stated)", "Potency": "active: 31.6 µM"}, {"smiles": "COc1ccc(C(=O)N2CCCn3nc(C)c(-c4ccccc4-c4ccccc4)c32)cc1", "Potency": "active: 35.5 µM"}, {"smiles": "O=C1Nc2ccccc2C12CN([S+](=O)([O-])c1cccc(C(F)(F)F)c1)C2", "activity change, negative = cytotoxicity": "inactive: -22.1%"}, {"smiles": "CCNC(=O)N(C1CC1)C1CCOC2(CCN(C(=O)COc3ccc(F)cc3)CC2)C1", "note": "(configuration not stated)", "activity change, negative = cytotoxicity": "inactive: -10.3%"}, {"smiles": "COc1ccccc1Cn1c(=O)c(C(=O)NCC2CC2)nc2cccnc21", "Potency": "inconclusive: 89.1 µM [inhibitor, single point]"}, {"smiles": "COc1ccccc1CN1CCc2nc(C(=O)Nc3nc(C)cs3)oc2CC1", "Potency": "inconclusive: 112 µM [inhibitor, single point]"}, {"smiles": "O=C(NCCc1ccc(Cl)cc1)C1CCCN(c2nccc(Nc3ccccc3F)n2)C1", "note": "(configuration not stated)", "Potency": "active: 22.4 µM"}, {"smiles": "Cc1cc(-c2nc(-c3c(C)noc3C)cc3cc(C)oc23)ccn1", "Potency": "inconclusive: 35.5 µM [inhibitor, full curve]"}, {"smiles": "COc1ccc2c(C)c(C(=O)N3CCCOC(Cn4cccn4)C3)oc2c1", "note": "(configuration not stated)", "Potency": "inconclusive: 56.2 µM [inhibitor, partial curve, poor fit]"}, {"smiles": "Cc1cn2nc(C(=O)N3CCC(NC(=O)COc4ccccc4)CC3)cc2c(=O)[nH]1", "activity change, negative = cytotoxicity": "inactive: 1.27%"}, {"smiles": "O=C1CO[C@H]2CN(C3CCC3)C[C@H]2N1Cc1ccc(OC(F)(F)F)cc1", "Potency": "inconclusive: 100 µM [inhibitor, partial curve, poor fit]"}, {"smiles": "O=C(NCCc1c[nH]c2ccc(F)cc12)C1CC(=O)N(c2n[nH]c3ccccc23)C1", "note": "(configuration not stated)", "Potency": "inconclusive: 89.1 µM [inhibitor, single point]"}, {"smiles": "Cc1nn(-c2ccc(C(F)(F)F)cc2)c(C)c1[C@@H]1C=C[C@@H](NC(=O)COc2ccccc2)C1", "Potency": "inconclusive: 50.1 µM [inhibitor, partial curve, poor fit]"}, {"smiles": "COc1cccc(NC(=O)N2CCc3nc4cc(-c5ccccc5Cl)[nH]n4c(=O)c3C2)c1", "Potency": "inconclusive: 44.7 µM [inhibitor, partial curve, poor fit]"}, {"smiles": "Cc1ccccc1NC(=O)CN1C(=O)C(c2ccccc2)=NC12CCCCCC2", "Potency": "inconclusive: 50.1 µM [inhibitor, partial curve, poor fit]"}, {"smiles": "COCCOC(=O)C1=C(C)N=C2SC=C(CC(=O)NCCc3ccccc3)N2C1c1ccccc1", "note": "(configuration not stated)", "Potency": "active: 50.1 µM"}, {"smiles": "Cc1ncsc1C(=O)N1CC(COc2ccccc2)C2(C1)CN(c1ccccc1)C2", "note": "(configuration not stated)", "Potency": "active: 100 µM"}]}]}
